According to the supplement of paper PMC8728848:
The list shows a part of the results.

Columns and labels:
Assay in all cases: glycan array binding signal (z-score within array); higher = stronger binding
Details in all cases: glycan notation: IUPAC condensed, linker removed
[1] = biological target: Fuc(a1-2)Gal6S(b1-3)GlcNAc6S
How it was run: (§1)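 Arrays were curated from the Consortium for Functional Glycomics database, 3228 in total, and kept only where the protein sequence was available. Binding is expressed as a within-array Z-score. This score was averaged across arrays of the same protein sequence at different concentrations or buffers and across linkers, and negative values can be read as non-binding.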

Fuc(a1-2)Gal6S(b1-4)Glc = biological target: Fuc(a1-2)Gal6S(b1-4)Glc
How it was run: as §1

[2] = biological target: Fuc(a1-2)Gal6S(b1-4)Glc6S
How it was run: as §1

Fuc(a1-2)[Gal(a1-3)]Gal = biological target: Fuc(a1-2)[Gal(a1-3)]Gal
How it was run: as §1

[3] = biological target: Fuc(a1-2)[Gal(a1-3)]Gal(b1-3)GalNAc
How it was run: as §1

[4] = biological target: Fuc(a1-2)[Gal(a1-3)]Gal(b1-3)GalNAc(b1-3)Gal(a1-4)Gal(b1-4)Glc
How it was run: as §1

[5] = biological target: Fuc(a1-2)[Gal(a1-3)]Gal(b1-3)GlcNAc
How it was run: as §1

[6] = biological target: Fuc(a1-2)[Gal(a1-3)]Gal(b1-3)GlcNAc(b1-2)Man(a1-3)[Fuc(a1-2)[Gal(a1-3)]Gal(b1-3)GlcNAc(b1-2)Man(a1-6)]Man(b1-4)GlcNAc(b1-4)GlcNAc
How it was run: as §1

[7] = biological target: Fuc(a1-2)[Gal(a1-3)]Gal(b1-3)GlcNAc(b1-2)Man(a1-3)[Fuc(a1-2)[Gal(a1-3)]Gal(b1-3)GlcNAc(b1-2)Man(a1-6)]Man(b1-4)GlcNAc(b1-4)[Fuc(a1-6)]GlcNAc
How it was run: as §1

[8] = biological target: Fuc(a1-2)[Gal(a1-3)]Gal(b1-3)GlcNAc(b1-3)GalNAc
How it was run: as §1

[9] = biological target: Fuc(a1-2)[Gal(a1-3)]Gal(b1-3)GlcNAc(b1-6)GalNAc
How it was run: as §1

[10] = biological target: Fuc(a1-2)[Gal(a1-3)]Gal(b1-4)Glc
How it was run: as §1

[11] = biological target: Fuc(a1-2)[Gal(a1-3)]Gal(b1-4)GlcNAc
How it was run: as §1

[12] = biological target: Fuc(a1-2)[Gal(a1-3)]Gal(b1-4)GlcNAc(b1-2)Man
How it was run: as §1

[13] = biological target: Fuc(a1-2)[Gal(a1-3)]Gal(b1-4)GlcNAc(b1-2)Man(a1-3)[Fuc(a1-2)[Gal(a1-3)]Gal(b1-4)GlcNAc(b1-2)Man(a1-6)]Man(b1-4)GlcNAc(b1-4)GlcNAc
How it was run: as §1

[14] = biological target: Fuc(a1-2)[Gal(a1-3)]Gal(b1-4)GlcNAc(b1-2)Man(a1-3)[Fuc(a1-2)[Gal(a1-3)]Gal(b1-4)GlcNAc(b1-2)Man(a1-6)]Man(b1-4)GlcNAc(b1-4)[Fuc(a1-6)]GlcNAc
How it was run: as §1

[15] = biological target: Fuc(a1-2)[Gal(a1-3)]Gal(b1-4)GlcNAc(b1-3)GalNAc
How it was run: as §1

[16] = biological target: Fuc(a1-2)[Gal(a1-3)]Gal(b1-4)GlcNAc(b1-3)[Fuc(a1-2)[Gal(a1-3)]Gal(b1-4)GlcNAc(b1-6)]GalNAc
How it was run: as §1

[17] = biological target: Fuc(a1-2)[Gal(a1-3)]Gal(b1-4)GlcNAc(b1-6)GalNAc
How it was run: as §1

[18] = biological target: Fuc(a1-2)[Gal(a1-3)]Gal(b1-4)[Fuc(a1-3)]Glc
How it was run: as §1

[19] = biological target: Fuc(a1-2)[Gal(a1-3)]Gal(b1-4)[Fuc(a1-3)]GlcNAc
How it was run: as §1

[20] = biological target: Fuc(a1-2)[Gal(a1-3)]Gal(b1-4)[Fuc(a1-3)]GlcNAc(b1-3)GalNAc
How it was run: as §1

[21] = biological target: Fuc(a1-2)[Gal(a1-4)]Gal(b1-4)GlcNAc
How it was run: as §1

[22] = biological target: Fuc(a1-2)[GalNAc(a1-3)]Gal
How it was run: as §1

[23] = biological target: Fuc(a1-2)[GalNAc(a1-3)]Gal(b1-3)GalNAc(a1-3)[Fuc(a1-2)]Gal(b1-4)GlcNAc
How it was run: as §1

[24] = biological target: Fuc(a1-2)[GalNAc(a1-3)]Gal(b1-3)GalNAc(b1-3)Gal(a1-4)Gal(b1-4)Glc
How it was run: as §1

[25] = biological target: Fuc(a1-2)[GalNAc(a1-3)]Gal(b1-3)GlcNAc
How it was run: as §1

[26] = biological target: Fuc(a1-2)[GalNAc(a1-3)]Gal(b1-3)GlcNAc(b1-2)Man(a1-3)[Fuc(a1-2)[GalNAc(a1-3)]Gal(b1-3)GlcNAc(b1-2)Man(a1-6)]Man(b1-4)GlcNAc(b1-4)GlcNAc
How it was run: as §1

[27] = biological target: Fuc(a1-2)[GalNAc(a1-3)]Gal(b1-3)GlcNAc(b1-2)Man(a1-3)[Fuc(a1-2)[GalNAc(a1-3)]Gal(b1-3)GlcNAc(b1-2)Man(a1-6)]Man(b1-4)GlcNAc(b1-4)[Fuc(a1-6)]GlcNAc
How it was run: as §1

[28] = biological target: Fuc(a1-2)[GalNAc(a1-3)]Gal(b1-3)GlcNAc(b1-3)GalNAc
How it was run: as §1

[29] = biological target: Fuc(a1-2)[GalNAc(a1-3)]Gal(b1-3)GlcNAc(b1-6)GalNAc
How it was run: as §1

[30] = biological target: Fuc(a1-2)[GalNAc(a1-3)]Gal(b1-4)Glc
How it was run: as §1

[31] = biological target: Fuc(a1-2)[GalNAc(a1-3)]Gal(b1-4)GlcNAc
How it was run: as §1

[32] = biological target: Fuc(a1-2)[GalNAc(a1-3)]Gal(b1-4)GlcNAc(b1-2)Man
How it was run: as §1

[33] = biological target: Fuc(a1-2)[GalNAc(a1-3)]Gal(b1-4)GlcNAc(b1-2)Man(a1-3)[Fuc(a1-2)[GalNAc(a1-3)]Gal(b1-4)GlcNAc(b1-2)Man(a1-6)]Man(b1-4)GlcNAc(b1-4)GlcNAc
How it was run: as §1

[34] = biological target: Fuc(a1-2)[GalNAc(a1-3)]Gal(b1-4)GlcNAc(b1-2)Man(a1-3)[Fuc(a1-2)[GalNAc(a1-3)]Gal(b1-4)GlcNAc(b1-2)Man(a1-6)]Man(b1-4)GlcNAc(b1-4)[Fuc(a1-6)]GlcNAc
How it was run: as §1

[35] = biological target: Fuc(a1-2)[GalNAc(a1-3)]Gal(b1-4)GlcNAc(b1-3)Gal(b1-4)GlcNAc
How it was run: as §1

[36] = biological target: Fuc(a1-2)[GalNAc(a1-3)]Gal(b1-4)GlcNAc(b1-3)Gal(b1-4)GlcNAc(b1-3)Gal(b1-4)GlcNAc
How it was run: as §1

[37] = biological target: Fuc(a1-2)[GalNAc(a1-3)]Gal(b1-4)GlcNAc(b1-3)GalNAc
How it was run: as §1

[38] = biological target: Fuc(a1-2)[GalNAc(a1-3)]Gal(b1-4)GlcNAc(b1-3)[Fuc(a1-2)[GalNAc(a1-3)]Gal(b1-4)GlcNAc(b1-6)]GalNAc
How it was run: as §1

[39] = biological target: Fuc(a1-2)[GalNAc(a1-3)]Gal(b1-4)GlcNAc(b1-6)GalNAc
How it was run: as §1

[40] = biological target: Fuc(a1-2)[GalNAc(a1-3)]Gal(b1-4)[Fuc(a1-3)]GlcNAc
How it was run: as §1

[41] = biological target: Fuc(a1-2)[GalNAc(a1-3)]Gal(b1-4)[Fuc(a1-3)]GlcNAc(b1-3)GalNAc
How it was run: as §1

[42] = biological target: Fuc(a1-2)[GalNAc(a1-4)]Gal(b1-4)GlcNAc
How it was run: as §1

[43] = biological target: Fuc(a1-2)[GalNAc(b1-3)]Gal
How it was run: as §1

B1: SP16665A-bot-344-23-344 (Bacteroides ovatus) (protein)
chain: SDNEFPDFDYQTVYFANQYGLRTIELGESEFVDNTLDNQHKMVIKAAWGGGYTNRNNVVINFKVDESLCDNLYFKDTDQPLVPMPASYYTLASDRIAIPKGQIMAGVEVQLTDDFFADEKSISENYVIPLLMTNVQGADSILQGKPVVENPVLTNAGDWSILPQNFVLYAVKYVNPWHGEYLRRGIDHATVAGTSKDIIRHEQFVENDEVVNISTKSMKDNLLTLKTKDESGKDISYTVRLSFAEDGSCTVHSGSQNVVVSGSGKFVSKGEKNSLGGKDRNAIYLDYTVNLTDNNIQLATKDTLVLRTRNVYGGKSLEVVRK
glycan array binding signal (z-score) [1]: 0.553
glycan array binding signal (z-score) (Fuc(a1-2)Gal6S(b1-4)Glc): 0.254
glycan array binding signal (z-score) [2]: 0.025
glycan array binding signal (z-score) (Fuc(a1-2)[Gal(a1-3)]Gal): -0.093
glycan array binding signal (z-score) [3]: -0.051
glycan array binding signal (z-score) [4]: -0.254
glycan array binding signal (z-score) [5]: -0.034
glycan array binding signal (z-score) [6]: -0.641
glycan array binding signal (z-score) [7]: -0.333
glycan array binding signal (z-score) [8]: -0.457
glycan array binding signal (z-score) [9]: 0.014
glycan array binding signal (z-score) [10]: -0.257
glycan array binding signal (z-score) [11]: -0.423
glycan array binding signal (z-score) [12]: 0.239
glycan array binding signal (z-score) [13]: 1.04
glycan array binding signal (z-score) [14]: -0.253
glycan array binding signal (z-score) [15]: -0.46
glycan array binding signal (z-score) [16]: 8.34
glycan array binding signal (z-score) [17]: -0.001
glycan array binding signal (z-score) [18]: 0.304
glycan array binding signal (z-score) [19]: -0.083
glycan array binding signal (z-score) [20]: -0.571
glycan array binding signal (z-score) [21]: 0.359
glycan array binding signal (z-score) [22]: -0.372
glycan array binding signal (z-score) [23]: -0.115
glycan array binding signal (z-score) [24]: -0.468
glycan array binding signal (z-score) [25]: -0.496
glycan array binding signal (z-score) [26]: -0.285
glycan array binding signal (z-score) [27]: -0.136
glycan array binding signal (z-score) [28]: 0.521
glycan array binding signal (z-score) [29]: -0.18
glycan array binding signal (z-score) [30]: -0.312
glycan array binding signal (z-score) [31]: -0.438
glycan array binding signal (z-score) [32]: -0.499
glycan array binding signal (z-score) [33]: -0.581
glycan array binding signal (z-score) [34]: -0.434
glycan array binding signal (z-score) [35]: -0.622
glycan array binding signal (z-score) [36]: 0.178
glycan array binding signal (z-score) [37]: -0.594
glycan array binding signal (z-score) [38]: -0.48
glycan array binding signal (z-score) [39]: -0.404
glycan array binding signal (z-score) [40]: 0.426
glycan array binding signal (z-score) [41]: 0.187
glycan array binding signal (z-score) [42]: -0.17
glycan array binding signal (z-score) [43]: -0.266
